For 7 molecules, binding results are on record in paper PMC5735978.

Chains of the proteins cited; added tags and fusions are not shown.
UniProt Q5S007: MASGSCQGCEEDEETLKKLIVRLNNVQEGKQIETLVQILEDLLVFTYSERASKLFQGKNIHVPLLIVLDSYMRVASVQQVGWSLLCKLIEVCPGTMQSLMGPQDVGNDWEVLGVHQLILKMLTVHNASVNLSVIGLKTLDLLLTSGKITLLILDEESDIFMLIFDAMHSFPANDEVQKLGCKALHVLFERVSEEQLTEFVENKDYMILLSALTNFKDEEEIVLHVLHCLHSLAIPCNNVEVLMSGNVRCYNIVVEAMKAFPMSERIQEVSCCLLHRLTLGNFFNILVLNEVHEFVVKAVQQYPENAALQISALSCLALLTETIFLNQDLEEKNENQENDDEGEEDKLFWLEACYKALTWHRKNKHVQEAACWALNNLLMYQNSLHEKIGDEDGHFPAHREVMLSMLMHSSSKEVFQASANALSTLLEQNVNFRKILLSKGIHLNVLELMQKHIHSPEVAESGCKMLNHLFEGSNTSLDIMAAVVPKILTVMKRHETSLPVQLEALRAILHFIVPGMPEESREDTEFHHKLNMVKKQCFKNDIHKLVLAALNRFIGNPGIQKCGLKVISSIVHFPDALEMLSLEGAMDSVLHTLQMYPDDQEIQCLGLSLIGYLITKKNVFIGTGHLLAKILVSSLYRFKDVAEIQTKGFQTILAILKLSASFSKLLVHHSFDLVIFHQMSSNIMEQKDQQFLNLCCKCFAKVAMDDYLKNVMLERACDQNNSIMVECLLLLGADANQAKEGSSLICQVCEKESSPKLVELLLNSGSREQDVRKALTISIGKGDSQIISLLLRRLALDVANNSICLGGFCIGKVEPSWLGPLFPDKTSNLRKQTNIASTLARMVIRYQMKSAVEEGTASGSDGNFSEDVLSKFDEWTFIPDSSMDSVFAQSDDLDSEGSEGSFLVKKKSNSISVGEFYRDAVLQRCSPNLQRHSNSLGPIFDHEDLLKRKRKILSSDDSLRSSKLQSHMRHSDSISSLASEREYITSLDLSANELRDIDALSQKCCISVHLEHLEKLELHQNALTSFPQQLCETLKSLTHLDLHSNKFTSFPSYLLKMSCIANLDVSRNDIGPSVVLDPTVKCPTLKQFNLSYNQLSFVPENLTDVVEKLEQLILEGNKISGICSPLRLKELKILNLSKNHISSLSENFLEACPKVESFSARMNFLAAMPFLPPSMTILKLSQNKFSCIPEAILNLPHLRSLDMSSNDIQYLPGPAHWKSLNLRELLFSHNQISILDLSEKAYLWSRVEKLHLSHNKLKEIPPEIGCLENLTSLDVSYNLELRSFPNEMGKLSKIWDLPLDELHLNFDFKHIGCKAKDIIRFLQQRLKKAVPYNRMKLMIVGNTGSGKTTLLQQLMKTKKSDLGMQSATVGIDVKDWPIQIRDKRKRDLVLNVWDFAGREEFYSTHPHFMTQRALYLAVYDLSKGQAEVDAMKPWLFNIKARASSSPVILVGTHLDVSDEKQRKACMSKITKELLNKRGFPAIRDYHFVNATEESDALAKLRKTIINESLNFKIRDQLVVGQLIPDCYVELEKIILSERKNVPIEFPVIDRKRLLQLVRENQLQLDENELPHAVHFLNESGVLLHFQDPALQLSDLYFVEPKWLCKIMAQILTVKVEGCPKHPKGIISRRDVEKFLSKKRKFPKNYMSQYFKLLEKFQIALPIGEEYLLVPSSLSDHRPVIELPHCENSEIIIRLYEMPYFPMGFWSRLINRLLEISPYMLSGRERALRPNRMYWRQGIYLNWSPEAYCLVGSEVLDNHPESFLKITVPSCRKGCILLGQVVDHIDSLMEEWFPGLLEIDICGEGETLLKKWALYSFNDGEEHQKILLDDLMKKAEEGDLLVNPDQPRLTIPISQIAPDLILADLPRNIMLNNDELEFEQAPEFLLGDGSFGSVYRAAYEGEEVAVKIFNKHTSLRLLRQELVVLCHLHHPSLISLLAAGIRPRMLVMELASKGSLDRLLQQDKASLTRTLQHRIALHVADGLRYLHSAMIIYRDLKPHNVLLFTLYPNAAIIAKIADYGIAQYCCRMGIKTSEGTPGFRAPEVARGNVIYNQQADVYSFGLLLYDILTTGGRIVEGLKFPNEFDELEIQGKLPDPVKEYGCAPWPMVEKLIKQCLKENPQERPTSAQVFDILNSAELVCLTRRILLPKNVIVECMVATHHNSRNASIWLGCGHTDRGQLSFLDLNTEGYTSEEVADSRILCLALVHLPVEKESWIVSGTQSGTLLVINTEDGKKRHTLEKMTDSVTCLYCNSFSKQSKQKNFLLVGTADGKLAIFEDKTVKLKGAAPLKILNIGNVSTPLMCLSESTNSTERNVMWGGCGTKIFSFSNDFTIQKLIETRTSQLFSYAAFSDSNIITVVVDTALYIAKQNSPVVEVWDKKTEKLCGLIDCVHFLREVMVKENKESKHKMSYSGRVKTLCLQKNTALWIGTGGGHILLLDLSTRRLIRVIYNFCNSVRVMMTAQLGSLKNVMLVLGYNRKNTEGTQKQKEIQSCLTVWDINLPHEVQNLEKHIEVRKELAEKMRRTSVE

The target of one experiment is 3xFlag-LRRK2 wild-type (UniProt Q5S007). The experiment can be described thus: far-Western, overlay or dot blot; immunopurified Flag-tagged PAK6 or LRRK2 separated by SDS-PAGE and blotted onto nitrocellulose; incubated with purified His-14-3-3s at 1 μg/ml in 5% BSA in TBS-T overnight at 4°C; anti-His detection; both purified.
The target of the next experiment is T1, 3xFlag-PAK6 K436M (UniProt Q9NQU5).
T1 sequence: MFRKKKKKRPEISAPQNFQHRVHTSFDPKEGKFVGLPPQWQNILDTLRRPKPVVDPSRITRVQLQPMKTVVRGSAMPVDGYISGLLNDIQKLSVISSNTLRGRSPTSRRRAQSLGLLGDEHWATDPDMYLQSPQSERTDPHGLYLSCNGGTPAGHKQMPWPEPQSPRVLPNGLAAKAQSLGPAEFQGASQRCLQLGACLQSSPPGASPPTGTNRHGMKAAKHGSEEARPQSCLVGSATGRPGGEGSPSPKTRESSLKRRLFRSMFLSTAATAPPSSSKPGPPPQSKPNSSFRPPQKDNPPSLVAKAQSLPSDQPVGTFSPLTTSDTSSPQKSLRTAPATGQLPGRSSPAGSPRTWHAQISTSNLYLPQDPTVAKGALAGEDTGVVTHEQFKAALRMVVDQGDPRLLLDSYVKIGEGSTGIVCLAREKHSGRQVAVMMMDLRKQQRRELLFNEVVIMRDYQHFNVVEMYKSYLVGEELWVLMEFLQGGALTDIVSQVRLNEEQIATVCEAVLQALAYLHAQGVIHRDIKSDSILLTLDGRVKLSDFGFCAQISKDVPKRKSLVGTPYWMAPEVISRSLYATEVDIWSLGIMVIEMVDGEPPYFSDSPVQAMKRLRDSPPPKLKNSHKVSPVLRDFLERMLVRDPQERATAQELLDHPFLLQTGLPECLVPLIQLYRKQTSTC
The experiment is described as above.

Another experiment concerns the target His-14-3-3γ S59D (human) (UniProt P61981). The experiment can be described thus: native gel or EMSA; blue native gel (4-16%) of purified His-14-3-3γ wild-type, S59D and T145D; 5 μg of protein loaded; Coomassie staining; both purified. Background: A gel shift assay detects complexes by their altered migration in electrophoresis.

Residue numbers refer to the chain shown, from its start. Names may count otherwise. Results are given in words; binding and its absence hold for the method and conditions named. Some entries that bind do so weakly or less than the wild type. Tags and fused reporters may be left off the sequences shown.

B1: His-14-3-3γ S59A (protein, UniProt P61981 1-247)
chain: MVDREQLVQKARLAEQAERYDDMAAAMKNVTELNEPLSNEERNLLSVAYKNVVGARRSAWRVISSIEQKTSADGNEKKIEMVRAYREKIEKELEAVCQDVLSLLDNYLIKNCSETQYESKVFYLKMKGDYYRYLAEVATGEKRATVVESSEKAYSEAHEISKEHMQPTHPIRLGLALNYSVFYYEIQNAPEQACHLAKTAFDDAIAELDTLNEDSYKDSTLIMQLLRDNLTLWTSDQQDDDGGEGNN
Consider B1, for which the binding result with 3xFlag-LRRK2 wild-type is given as “binds”.

B2: PAK6-phosphorylated 14-3-3γ S59A (protein, UniProt P61981 1-247)
chain: B1 chain
modifications: subjected to PAK6 phosphorylation (1 mM ATP); sites not told for this variant
As to B2, the binding result in the experiment with 3xFlag-LRRK2 wild-type is “binds”.

B3: 6xHis-14-3-3γ wild-type (protein, UniProt P61981 1-247)
chain: B1 chain with A59S
Take B3: the binding result with 3xFlag-PAK6 K436M is listed as “no binding (tested: 1 μg/ml)”.

B4: His-14-3-3γ T145D (protein, UniProt P61981 1-247)
chain: B1 chain with A59S, T145D
B4: the binding result in the experiment with 3xFlag-LRRK2 wild-type is “binds”.

B5: His-14-3-3γ T145A (protein, UniProt P61981 1-247)
chain: B1 chain with A59S, T145A
As to B5, in the experiment with 3xFlag-LRRK2 wild-type, the binding entry is listed as “binds”.

B6: His-14-3-3γ S59D (protein, UniProt P61981 1-247)
chain: B1 chain with A59D
As to B6, the binding entry with His-14-3-3γ S59D (human) was “no binding”.

B7: 6xHis-14-3-3 theta (protein, UniProt P27348 1-245)
chain: MEKTELIQKAKLAEQAERYDDMATCMKAVTEQGAELSNEERNLLSVAYKNVVGGRRSAWRVISSIEQKTDTSDKKLQLIKDYREKVESELRSICTTVLELLDKYLIANATNPESKVFYLKMKGDYFRYLAEVACGDDRKQTIDNSQGAYQEAFDISKKEMQPTHPIRLGLALNFSVFYYEILNNPELACTLAKTAFDEAIAELDTLNEDSYKDSTLIMQLLRDNLTLWTSDSAGEECDAAEGAEN
Take B7: the binding result with 3xFlag-LRRK2 wild-type is “binds”.
